The record followed here is PubChem BioAssay AID485344 (National Center for Advancing Translational Sciences (NCATS), 2010).

Structures are written as SMILES. Hit rate of the full screen: of about 340,000 compounds, about 6,900 (2%) were called active. No stated cut-off is given here; in the data, active means inhibition above about 30%; inactive means below that, where a call was filed. The list shows a part of the results, in another mix than the full data. Entries without a call were filed so in the source.

Sequence of UniProt P14416 (P14416 whole entry, looked up): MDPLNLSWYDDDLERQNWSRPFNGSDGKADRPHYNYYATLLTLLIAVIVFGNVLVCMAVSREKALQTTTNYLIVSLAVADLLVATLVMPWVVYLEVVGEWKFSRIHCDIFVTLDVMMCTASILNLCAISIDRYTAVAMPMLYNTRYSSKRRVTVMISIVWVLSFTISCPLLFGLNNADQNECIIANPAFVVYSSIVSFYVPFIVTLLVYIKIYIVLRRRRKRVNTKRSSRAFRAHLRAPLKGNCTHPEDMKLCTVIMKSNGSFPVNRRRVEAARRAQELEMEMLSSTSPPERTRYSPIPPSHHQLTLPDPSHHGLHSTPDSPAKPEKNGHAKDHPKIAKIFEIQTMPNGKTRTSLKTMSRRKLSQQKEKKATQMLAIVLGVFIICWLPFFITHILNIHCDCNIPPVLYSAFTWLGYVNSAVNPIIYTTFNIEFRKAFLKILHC

This test addresses D(2) dopamine receptor (Homo sapiens) (UniProt P14416). Kind of test: HTS Assay for Allosteric Antagonists of the Human D2 Dopamine Receptor: Primary Screen for Antagonists. Further: 0% is about no effect. The conditions noted are these: HEK293 TREx D2 cells, calcium flux, dopamine EC80; at 10 µM; stronger effect = higher value. The procedure, abridged:
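HEK293 T-REx D2 cells, tet-induced, calcium dye no-wash. Cpd pintool add, 180 s kinetic, then EC80 DA, 180 s kinetic. Ca flux read.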
As for `Cc1ccc(CNc2ncnc3c2c(-c2ccccc2)cn3-c2ccccc2)cc1`, the inhibition was -0.934%.

Consider `CCCSc1nc(-c2ccc(OC)cc2)cc(-c2ccccc2OC)c1C#N`, for which the inhibition is -1.56%. In the case of `COc1ccc(Br)cc1CNC(=O)c1cc(=O)[nH]c2ccc(S(=O)(=O)N3CCCCC3)cc12`, the inhibition was determined as 8.48%. As to `CC(C)Sc1n[nH]c2nc3c(c(=O)n12)C1(CCCC1)Cc1ccccc1-3`, the inhibition was active: 54.6%. For the molecule `Cc1cccc(C)c1NC(=O)CN(Cc1ccc(Br)cc1)S(=O)(=O)c1ccccc1`, the inhibition is -13.1%. On to `COc1ccc(Cl)cc1Nc1cc(C)nc2nc(-c3ccccc3C)nn12`, for which the inhibition was -14.5%. As to `COc1ccc(-c2noc(N3CCC(C(=O)Nc4ccc(OC)c(OC)c4)CC3)n2)cc1`, the inhibition is -5.98%. As to `O=c1c2cc3c(cc2n(Cc2ccccc2)c(=O)n1Cc1nc(-c2ccccc2)no1)OCO3`, the inhibition is -8.19%. For the molecule `COc1ccc(NC(=O)N2CCN(S(=O)(=O)c3ccc4c(ccn4C)c3)CC2)cc1OC`, the inhibition was 4.63%.

As to `CCC1CN(C(=O)NCc2ccccc2)c2cc(C)ccc2O1` (stereo not given), the inhibition is 3.9%. For the molecule `COCCCNC(=O)C(C)n1c2ccccc2c2cnn(C)c(=O)c21` (stereo not given), the inhibition worked out at 2.66%. Take `O=C(Nc1ccc(Cl)c(C(F)(F)F)c1)c1ccc2c(c1)CCN2S(=O)(=O)c1ccccc1`: the inhibition was determined as 1.97%. Take `COc1ccc(NC(=O)CN2C(=O)CSc3ccc(S(=O)(=O)N(C)C)cc32)cc1Cl`: the inhibition was -2.84%. With `COc1cc(NS(C)(=O)=O)cc(OC)c1OC`, the inhibition is active: 30.4%. `Cc1ccccc1Cn1nnc2c(=O)[nH]c(C3CCN(C(=O)c4ccccc4Cl)CC3)nc21`: the inhibition was 0.698%. In the case of `COc1ccc(NC(=O)C2CCN(C(=O)N3CCOc4ccccc43)CC2)cc1`, the inhibition was -4.8%. As for `Cc1ccc2occ(CC(=O)Nc3ccc(S(=O)(=O)N4CCCC(C)C4)cc3)c2c1` (stereo not given), the inhibition is 2.33%. Take `Cc1ccc(-n2ncc(C(=O)NCc3ccccn3)c2C2CCN(C(=O)OC(C)(C)C)CC2)c(C)c1`: the inhibition is -18.8%.

On to `COc1ccc(CNC(=O)CCCn2c(=O)c3cccn3c3ccc(F)cc32)cc1OC`, for which the inhibition came out at 11%. The result for `CCN(C(=O)c1cc2c(=O)n(CC)c3ccccc3c2s1)c1cccc(C(F)(F)F)c1` reads -17.1%. Take `Cn1nc(-c2ccc(OCC(=O)Nc3ccc(Cl)cc3)cc2)c2ccccc2c1=O`: the inhibition came to 5.37%. For `COc1ccc(Br)cc1CNC(=O)c1cnc2sc(N3CCCCCC3)nn2c1=O`, the inhibition is -4.55%. `CCC(C(=O)Nc1ccccc1)n1nc(-c2cc(C)ccc2C)ccc1=O` (stereo not given): the inhibition is 13.4%. The result for `Cc1cccc(NC(=O)C2CCCN(S(=O)(=O)c3c(C)n[nH]c3C)C2)c1` (stereo not given) reads -7.88%; that for `CSc1ccc(CCNC(=O)Cn2ncn3c(cc4ccccc43)c2=O)cc1`, -6.48%. For `CCN1C(=O)N(c2ccc(C(C)=O)cc2)S(=O)(=O)c2ccccc21`, the inhibition was 19.5%.

With `Cc1ccc(CN2C(=O)C(=O)c3cc(Br)cc(C)c32)cc1`, the inhibition was -0.512%. In the case of `Cc1ccccc1Nc1c(-c2cccnc2)nc2cccc(C)n12`, the inhibition came to 14%. Take `CC(=O)Nc1nonc1-c1nnc(SCC(=O)Nc2cccc(C)c2C)n1-c1ccccc1`: the inhibition was -1.44%. In the case of `COc1cc(C(=O)Nc2cccc(OCc3cc(=O)n4cc(C)sc4n3)c2)cc(OC)c1OC`, the inhibition is -4.62%.

For the molecule `COc1ccc(Cn2cc(C(=O)c3ccc(F)cc3)c(=O)c3cc4c(cc32)OCCO4)cc1`, the inhibition was -0.913%. Consider `Cc1nn(C)c(C)c1CCNC(=O)Nc1cccc(Cl)c1C`, for which the inhibition was -12.7%. As to `COc1ccc(-c2nc3ccccc3o2)cc1NC(=O)c1ccc(-c2ccc(Br)cc2)o1`, the inhibition was -11.4%. The same measure for `COc1ccc(-c2nc(CCNC(=O)c3c(F)cccc3Cl)cs2)cc1`: 19.7%; for `CCCCNc1ccc(-c2nc(-c3ccncc3)no2)cc1[N+](=O)[O-]`: 13%; for `COc1cccc(NC(=O)Cn2c(=O)ccc3cc(S(=O)(=O)N4CCC(C)CC4)ccc32)c1`: -16%. With `COc1ccc(Cl)cc1S(=O)(=O)N1CCN(CC(=O)Nc2ccccc2C(F)(F)F)CC1`, the inhibition was found to be 0.836%.

Take `CCOc1ccc(-n2nc3ccc(NC(=O)c4cccc(F)c4)cc3n2)cc1`: the inhibition turned out to be 2.3%. The result for `CCSc1nc2c([nH]c3ccccc32)c(=O)n1-c1cccc(OC)c1` reads 17.3%; that for `CCOc1ccc(-c2nnc(SCC(=O)NC(C)CC)nc2-c2ccc(OCC)c(OC)c2)cc1OC` (stereo not given), -14.6%. `COc1ccc(-c2c(C#N)c(SCC(=O)Nc3ccc(C)cc3)nc(C)c2C(=O)Nc2ccccc2)cc1`: the inhibition came to 8.87%. The result for `Cc1ccc(CNC(=O)CSc2nc(=O)n(Cc3ccco3)c3c2CCC3)cc1` reads -12.5%; that for `COc1ccc(C2=NC3(CCCCCC3)N(CC(=O)Nc3cccc(Cl)c3)C2=O)cc1`, -4.3%.

For the molecule `Cc1ccn2c(Nc3ccc4c(c3)OCO4)c(-c3ccc(Cl)cc3)nc2c1`, the inhibition is -6.13%. The same measure for `COc1cccc(CNC(=O)CN2CCCN(Cc3ccccc3)S2(=O)=O)c1`: 20%; for `O=C(Nc1ccc(F)c(F)c1)c1cc(S(=O)(=O)NCc2ccc3c(c2)OCO3)ccc1F`: -16.2%.

For the molecule `Cn1c2c(c(=O)n(C)c1=O)C(c1ccccc1[N+](=O)[O-])CC(=O)N2` (stereo not given), the inhibition was -22.1%. For the molecule `COc1ccccc1CNc1ccc(-c2nc(-c3ccccc3C)no2)cc1[N+](=O)[O-]`, the inhibition was -1.18%. For the molecule `CCc1ccccc1NC(=O)CSc1nc2n[nH]c(C)c2c(=N)n1-c1cccc(C)c1`, the inhibition was -16.2%. With `COc1ccc(-c2nn(-c3ccc(F)cc3)c3c2cnc2cc4c(cc23)OCO4)cc1`, the inhibition was 10.3%.

As to `CCOc1nc(NC(=O)NS(=O)(=O)Oc2cccc(Cl)c2)nc(-c2ccccc2)n1`, the inhibition amounted to 2.11%. Consider `Cc1cc(C)cc(NC(=O)C2CCN(C(=O)c3cnn(-c4ccccc4)c3-n3cccc3)CC2)c1`, for which the inhibition amounted to 4.86%. In the case of `CCN(CC)CCNC(=O)c1ccc(NC(=O)COc2ccc3c(c2)CCC3)cc1`, the inhibition was active: 32.3%. For `CC1CCn2c(nc3cc(C(=O)NCc4ccc(F)cc4)ccc32)C1` (stereo not given), the inhibition came out at 10.7%. With `Cc1ccc2c(c1)cc1c(=O)n(CC(=O)NC(C)CCc3ccccc3)nc(C)n12` (stereo not given), the inhibition is -9.45%. The result for `O=C(NCc1nc2ccccc2[nH]1)C1=C[C@H](C2CC2)C[C@H](OCc2ccc(CO)cc2)O1` reads active: 40%; that for `O=C(NCc1cccs1)c1ccc(CSc2nc3cccnc3n2Cc2ccc(F)cc2)cc1`, -1.87%; that for `CC1CCN(c2ccc(-c3cccc(NS(=O)(=O)c4cccs4)c3)nn2)CC1`, -2.88%. Turning to `CC(=O)c1cccc(NC(=O)Cn2c(=O)oc3cc(S(=O)(=O)NCc4ccccc4)ccc32)c1`, the inhibition came to 5.82%. As for `Cc1ccc(CNC(=O)c2nnn(Cc3ccc(F)cc3)c2N)cc1`, the inhibition is 4.01%.

As a reminder, the inhibition is the relative decrease from the control value, in per cent.
